Test results from publication PMC4336329 (PLoS ONE, 2015).
Out of some 310,000 compounds screened, about 14,000 (4.5%) showed an effect of 50% or more. Effects have a minus sign here. Some of the results follow.

biological target: human ether-à-go-go-related gene (hERG) potassium channel (human, UniProt Q12809); experiment: primary screen, population patch clamp on CHO cells stably expressing hERG
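Further: peak tail current of the secondary pulse compared with the same well before compound.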

human ether-à-go-go-related gene (hERG) potassium channel, sequence (Q12809 whole entry, looked up): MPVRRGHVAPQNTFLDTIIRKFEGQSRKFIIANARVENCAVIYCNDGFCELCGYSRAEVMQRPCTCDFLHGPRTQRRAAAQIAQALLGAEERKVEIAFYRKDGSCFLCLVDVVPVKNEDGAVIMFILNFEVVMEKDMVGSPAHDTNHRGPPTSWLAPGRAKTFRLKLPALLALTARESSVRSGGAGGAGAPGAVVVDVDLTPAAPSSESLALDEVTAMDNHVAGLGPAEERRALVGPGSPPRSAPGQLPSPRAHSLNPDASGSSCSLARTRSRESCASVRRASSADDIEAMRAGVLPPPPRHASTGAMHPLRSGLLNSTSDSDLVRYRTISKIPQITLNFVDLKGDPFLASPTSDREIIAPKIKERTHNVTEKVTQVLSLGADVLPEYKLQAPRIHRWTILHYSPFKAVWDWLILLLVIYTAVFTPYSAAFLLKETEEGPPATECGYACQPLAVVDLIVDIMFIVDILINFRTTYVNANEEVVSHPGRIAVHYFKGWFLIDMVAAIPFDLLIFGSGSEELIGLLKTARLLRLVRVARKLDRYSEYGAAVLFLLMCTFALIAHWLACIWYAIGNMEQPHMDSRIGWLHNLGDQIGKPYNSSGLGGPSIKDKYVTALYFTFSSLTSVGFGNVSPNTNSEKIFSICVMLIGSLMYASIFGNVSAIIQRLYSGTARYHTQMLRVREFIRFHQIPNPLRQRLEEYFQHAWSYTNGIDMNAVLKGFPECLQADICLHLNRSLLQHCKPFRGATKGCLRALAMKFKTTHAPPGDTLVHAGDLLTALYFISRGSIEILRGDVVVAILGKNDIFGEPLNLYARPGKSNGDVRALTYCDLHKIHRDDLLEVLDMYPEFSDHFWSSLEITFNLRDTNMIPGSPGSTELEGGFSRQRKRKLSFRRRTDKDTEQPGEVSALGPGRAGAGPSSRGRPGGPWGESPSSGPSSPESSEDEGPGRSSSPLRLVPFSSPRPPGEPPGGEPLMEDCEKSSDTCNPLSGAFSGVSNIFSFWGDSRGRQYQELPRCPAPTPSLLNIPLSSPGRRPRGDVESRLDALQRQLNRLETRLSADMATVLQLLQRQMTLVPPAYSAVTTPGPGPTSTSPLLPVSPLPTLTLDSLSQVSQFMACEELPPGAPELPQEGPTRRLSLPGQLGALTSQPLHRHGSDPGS

Compound | hERG current change (%, negative = inhibition) at 10uM [%]
C[C@H]1CCC(=O)N(CCSc2ccc(Br)cc2)CC1 | -23.8
CCN(CC(=O)Nc1c(F)cccc1F)C(=O)C1COc2ccccc2O1 (stereo not drawn) | 1.86
CCOC(=O)CSC1=NC(=O)CS1 | 16.1
COc1ccc(-c2nc(C#N)c(N3CCN(c4ccccc4)CC3)o2)cc1 | 5.48
Cc1ccc(S(=O)(=O)Nc2ccc(S(=O)(=O)NCC3CCCO3)cc2)cc1 (stereo not drawn) | 15
O=C(OCc1cccc2ccccc12)C1CC(=O)N(c2ccccc2)C1 (stereo not drawn) | 13
CC(OC(=O)c1ccccc1C(=O)N(C)c1ccccc1)C(=O)Nc1ccccc1[N+](=O)[O-] (stereo not drawn) | -45.5
COc1cccc(C2CC(c3ccc(C(C)C)cc3)n3nc(N)nc3N2)c1 (stereo not drawn) | -4.8
COc1ccc(SC[C@H](Cc2ccccc2)N2CCN(C)CCC2=O)cc1 | -52.2
O=C1/C(=C/c2ccc(F)cc2)SC(=S)N1N1CCOCC1 | 17.8
CCOc1ccc(NC(=O)N2CCC(c3nc4ccccc4o3)CC2)cc1 | -15.6
CCCCN(Cc1ccccc1)C(=O)C1CCN(Cc2sccc2C)CC1.O=C(O)C(=O)O | -68.3
Cc1ccc(Cn2nnnc2CN2CCC(NC(=O)c3ccccc3F)CC2)cc1 | -27.2
CCOc1ccc(CC(=O)NC2CCN(Cc3ccccc3)CC2)cc1 | -6.23
CC1CN(CCS(=O)(=O)c2cc(Cl)ccc2Cl)CC(C)O1 (stereo not drawn) | 1.08
O=C(Cc1ccc(Cl)cc1)Nc1ccc(-c2nnc(-c3ccco3)o2)cc1 | 10.4
Br.CC(=O)Nc1nc(C)c(-c2csc(Nc3ccccn3)n2)s1 | -6.15
O=S(=O)(NCC(c1cccnc1)N1CCOCC1)c1cccs1 (stereo not drawn) | -10.9
COc1ccc(/C(N)=N/OC(=O)CCCN2C(=O)c3ccccc3C2=O)cc1OC | -5.38
COc1cccc(/C=N/Nc2ccc([N+](=O)[O-])cc2)c1O | 12.8
CC1=[N+](CC(=O)NC(C)(C)C)CCc2ccccc21.[Cl-] | 13
COc1ccc(N(CC(=O)NCCSC2CCCCC2)S(C)(=O)=O)c(OC)c1 | -4.87
CCC(O)CNc1nc(-n2nc(C)cc2C)nc2sc3c(c12)CC(C)(C)OC3 (stereo not drawn) | 6.47

Compound | hERG current change (%, negative = inhibition) at 10uM [%]
COc1ccc(C(=O)n2nc(C)c(Br)c2C)cc1OC | 11.9
CC(C)(C)c1ccc(C(=O)N/C(=C\c2ccco2)C(=O)O)cc1 | 12.7
COc1ccc(C(=O)/C=C/c2ccc(OC)c(COc3ccc(F)cc3)c2)cc1 | 11.5
CC(=O)c1c(COC(=O)c2ccc(C)cc2)nc2ccccc2[n+]1[O-] | 6.12
COc1ccccc1NC(=O)c1c(NC(=O)CCC(=O)O)sc2c1CCCCC2 | 17.8
O=C(NN1CCCCC1)c1cccc2ccccc12 | 22.2
CC(C)(C)C(=O)Nc1c(Br)c(C2CC2)nn1-c1ccccc1 | 12.7
O=S(=O)(c1ccc(S(=O)(=O)N2CCOCC2)cc1)N1CCCC1 | 11.4
CCCCNc1nc2ccccc2n1CC(=O)N1CCc2ccccc2C1 | -49.6
COC(=O)C1=C(C)N(C(C)C)C(=O)C1(NC(C)=O)C(F)(F)F (stereo not drawn) | 5.9
Cc1ccc(-c2nnc(SCC(N)=O)nc2-c2ccc(C)cc2)cc1 | -24.2
Cc1ccsc1C=Nc1ccc(O)cc1 | 1.81
CC1=C(C(=O)NC(C)CCc2ccccc2)C2(CCC(C)CC2)OC1=O (stereo not drawn) | 5.1
CCc1nnc(NC(=O)CSc2nnc(COc3ccccc3C)o2)s1 | 15.2
CCC1CSC(Nc2ccc(C(=O)/C=C/c3ccc(OC)c(OC)c3)cc2)=N1 (stereo not drawn) | -52.4
CCn1c(SCC(=O)N2CCc3ccccc32)nnc1-c1ccncc1 | -7.04
N#Cc1c(-c2ccc(Br)cc2)nc2n(c1=O)CCCS2 | -16.1
O=C1c2ccccc2C(=O)N1CCc1c[nH]c2ccc(O)cc12 | 0.718
O=C(COc1cccc2ccccc12)Nc1ccc(Cl)cc1C(=O)O | 29.6
Cn1cc(P(=O)(N2CCOCC2)N2CCOCC2)cc1P(=S)(N1CCOCC1)N1CCOCC1 | 16.6
c1ccc(CNc2nc(-c3ccccn3)nc3ccccc23)cc1 | -43.5
O=S(=O)(Nc1ccc2c(c1)CCC2)c1cccs1 | -21.2
